Among the data in paper PMC12136788 are binding signal values, retold here.

This is one part of the list.

The labels stand for the following.
T1: UNK ZnF1-3 (human, UniProt Q9C0B0 31-174)
T1 sequence: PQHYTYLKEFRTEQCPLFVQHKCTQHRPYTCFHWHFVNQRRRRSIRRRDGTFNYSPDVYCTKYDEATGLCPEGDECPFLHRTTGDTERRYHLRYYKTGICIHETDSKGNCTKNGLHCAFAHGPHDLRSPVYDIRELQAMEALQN

B1: 55647946_55649138_721_CDS_ENSG00000126787_ENST00000247191|human|control|control (ssRNA)
RNA: GGGAGUUCUACAGUCCGACGAUCUGACACUUUCUUUUCAGAAGUUUGUCUUGGACCAGGUCGGAUUGCUCGAACAUCACUCUCGUUAUCAAUCUUAGUCUGCUCCAUUUGGUCUUUGGCCUUUGACCUUGUAAUCCGUACAGACAACAGAGGAUUGAGCAUCA
B2: 59351071_59358873_1209_CDS_ENSMUSG00000025094_ENSMUST00000026084|mouse|control|control (ssRNA)
RNA: GGGAGUUCUACAGUCCGACGAUCCCCAACAACUAUCAUUCCCAGAAGAGCACACAGCCACCUUCCCAUUUUGUGUGCAAGUAUCCCAAAAAUAUUGGUUCCAAUGAGAUAAGAGAUGCUCGCUGGCAGGAAGGCAACGCCCAGCAACAGAGGAUUGAGCAUCA
B3: 63482227_63482347_13669_CDS_ENSMUSG00000030451_ENSMUST00000076226|mouse|control|control (ssRNA)
RNA: GGGAGUUCUACAGUCCGACGAUCGUAACAGUCUCUGUUGGCACCAGACUCAUCCCUGCCAUUGGGAGUCACAAUCAGAAGAGGUGUGAGUCCGUUUUGCAGCUCCUCACAAAUCUCUGCUAUAGACUCACUGUAGCCACCACCCAACAGAGGAUUGAGCAUCA
B4: chr6:86328614:86328615:-_ENSG00000135316_ENST00000355238|hu_hu|FALSE|FALSE (ssRNA)
RNA: GGGAGUUCUACAGUCCGACGAUCCUGAGCUUUUCUUUCUUUCCUUUUCUGAUCUGGUGGCUUGGCAAAAACAAUUUCAAUAUUUUCUCCCUCCAAGUCUUUGCCAUUCAUUUCUUCCAUAGCCUUGACAGCACCAUCUCGCUCCAACAGAGGAUUGAGCAUCA
B5: chr5:93602159:93602160:+_ENSMUSG00000058013_ENSMUST00000074733|mus_mus|FALSE|FALSE (ssRNA)
RNA: GGGAGUUCUACAGUCCGACGAUCGCAUGUCUUUAAAAGCUUUUAGGGAUGAGAGAAAUUGAAUGCAAAGGGGUGUUUUCUAUUCCAAGGCACAUACACACACACAAAAUAAAGCUCACACAAGCAGUGGCCGGAACAAGCAGACAACAGAGGAUUGAGCAUCA
B6: chr6:44218825:44218826:+_ENSG00000096384_ENST00000371646|hu_hu|FALSE|FALSE (ssRNA)
RNA: GGGAGUUCUACAGUCCGACGAUCGUUGUUCUUUUUCUUCUUGUUCUCAAAAAGGUCAAAGGGAGCCCGACGAGGAAUAAAUAGCAAUGCCCUGAAUUCCAACUGACCUUCUACAGAAAAGUGCUUGACUGCCAAGUGGUCUUCCAACAGAGGAUUGAGCAUCA
B7: chr8:74858975:74858976:-_ENSG00000154582_ENST00000284811|hu_mus|hu_hu_hu_mus_True|48_108 (ssRNA)
RNA: GGGAGUUCUACAGUCCGACGAUCGACCUUGUACGUAAAAUACAUGCACACUUUUGAUAGCACAUGUGAGGGGAUCUCUCUAAAAUUGACCUCAUUGGUUUCAUUCUCAGCAAACUGACCUGGACCACUCAACAUAGCCUUUAUCAACAGAGGAUUGAGCAUCA
B8: chr16:45382771:45382772:-_ENSMUSG00000022661_ENSMUST00000163230|mus_mus|mus_mus_mus_hu_True|58_108 (ssRNA)
RNA: GGGAGUUCUACAGUCCGACGAUCCUGAGUGUUAUUGUAAGACAAAUGGACAGGGAGGGCAUGCUUCUCAAAAAAUGUGAACUACUCUCUAAGACUAACAAUAUUUAUCUAGCUAUAAAAAUAAGUUAAAUGAAUAAGUUAAGACAACAGAGGAUUGAGCAUCA
B9: chr6:30688276:30688277:+_ENSG00000196230_ENST00000327892|hu_mus|motif|central (ssRNA)
RNA: GGGAGUUCUACAGUCCGACGAUCCCGAUCUGGUUGCCACACUGUCCGGCCUGGAUGUGCACGAUUUCCCUCAUGGCGGCGGUUUACUGAAAUAAUUGUUUUUGAUGGUUCCAAUGUAGGUACCGAACAAGAAAGAAAAUUAAGCAACAGAGGAUUGAGCAUCA
B10: chr17:64801638:64801639:+_ENSG00000154229_ENST00000413366|hu_mus|hu_hu_hu_mus_False|1_88 (ssRNA)
RNA: GGGAGUUCUACAGUCCGACGAUCUAUAUAUAUAUAUACAUAUGUACACAUAUGUAGUAAAACCCUAGUUAAACGUGUAAAGUAGCCAUUCAUUUUUAAAAUUACAUCUACAUUAAAAAAUUAAUAUAUCUGAUAGAGUGCCCACAACAGAGGAUUGAGCAUCA
B11: chr10:27411851:27411852:-_ENSG00000136758_ENST00000375972|hu_mus|FALSE|FALSE (ssRNA)
RNA: GGGAGUUCUACAGUCCGACGAUCCGUCUGCCUUGAAUACGGGUGCAUUGGAGAUUCAAUUCUCUUUCCACCAACAGAAUCUAAUUCAUCGAUGAAUAUAACACAAGGAGCAUUUGCUUUUGCUUCUCUAAAAAGAUUUCUGAUCAACAGAGGAUUGAGCAUCA
B12: chrX:71549400:71549401:+_ENSMUSG00000019087_ENSMUST00000019231|mus_mus|motif|central (ssRNA)
RNA: GGGAGUUCUACAGUCCGACGAUCAGUAGGAAGAGGACAAACCUUUCCAUCCACUGUGUCACAAAACAGAAACAUGACAACCGGGACACCAAUACUCCCUCAAUUCCUCUCAGGUGUAUGUCACACAAUCUGGGUCAAAGUGAUCAACAGAGGAUUGAGCAUCA
B13: chr13:59555571:59555572:-_ENSMUSG00000021557_ENSMUST00000164215|mus_mus|motif|central (ssRNA)
RNA: GGGAGUUCUACAGUCCGACGAUCAAAAGAGAAAGGAAUUGCUAAUGUCUGAUUGGUGGCAAGAGGCAUGAAGCUGUAGCGGUUAAAUGGCCCUGAGCCAGUCCUCCCAGGAGAGUGCCGAUGGCCAGGUCACUGUCAUCGCGUCAACAGAGGAUUGAGCAUCA
B14: chr14:102516957:102516958:+_ENSG00000197102_ENST00000360184|hu_hu|motif|central (ssRNA)
RNA: GGGAGUUCUACAGUCCGACGAUCAGCUCAGACCUUCCAAAUAUUUUAAAAAUGAAUAAAUGUUAAAUACCAACUUUCACGGUUACAGAAAGGGGCAGCUAGAAAAGUUUACUCUGUGCACAAGACUGCGACACCCCGCUCGUACAACAGAGGAUUGAGCAUCA
B15: chr20:37186997:37186998:+_ENSG00000170471_ENST00000397040|hu_mus|motif|central (ssRNA)
RNA: GGGAGUUCUACAGUCCGACGAUCAUCAAAAAAUCCAGGUAUGGUAGAAUCGAGUGCAAUAAGAUGAGGAGGUAGACGACGGUUUGCAGGUUCCUUUAAUGCCUCUAAGGAUAAAAAUCCAAAGUGAGAAAGGAAAAGGCGGGCCAACAGAGGAUUGAGCAUCA
B16: 5257666_5264503_1260_3pUTR_ENSG00000029725_ENST00000262477|human|control|control (ssRNA)
RNA: GGGAGUUCUACAGUCCGACGAUCCCUCUUCAUUUGAUAACUGGGCUGAAGAUUCUUCUUGAGUUAAAGCACACACUACUGGUAUUUUUAUUUCUUCCUCAACAUCUGCUUUUUUGUGAUCCUUUCUCUUAUUGAGUCUUUGUUCAACAGAGGAUUGAGCAUCA
B17: chr20:43533646:43533647:+_ENSG00000166913_ENST00000353703|hu_mus|FALSE|FALSE (ssRNA)
RNA: GGGAGUUCUACAGUCCGACGAUCGAAAUUCAGCGCCAGGCCGAGGCGAAUCGGGUGUGUAGGCUGCAUUUCUUUCUUGCUGAUUUCAAAUGCUUCUUGGUAAGCCUGCUGGGAGUUGGACACCGUGGUUUGUUUAUUUUCUCCCAACAGAGGAUUGAGCAUCA
B18: chr3:95733387:95733388:+_ENSMUSG00000015749_ENSMUST00000165307|mus_hu|motif|central (ssRNA)
RNA: GGGAGUUCUACAGUCCGACGAUCAGAUAGGUGUGGGGGAGAAAGAAGAGAAUAGCAAAUGGAGUCCAAGAGUUGGGACUCGGACUCAGCUGCCCCCACCUCCUUGUCCACACACUAGCGCGCGCACACACACGCACGCACGCGCAACAGAGGAUUGAGCAUCA
B19: chr5:113341905:113341906:-_ENSMUSG00000042249_ENSMUST00000065167|mus_hu|FALSE|FALSE (ssRNA)
RNA: GGGAGUUCUACAGUCCGACGAUCAAAACAACAGCCAAGUAUACCAUGAUGUUUAAUCCAACUGACUUUUCCUCUGGCCAUGCAGGCAACCGGGUGCAGACACAGCGGUAUCCUGUGUCUGGUCGCAGAAACACCUCCAUCACACAACAGAGGAUUGAGCAUCA
B20: chr3:176740097:176740098:-_ENSG00000177565_ENST00000430069|hu_mus|hu_hu_hu_mus_True|1_108 (ssRNA)
RNA: GGGAGUUCUACAGUCCGACGAUCUGUUUUUUACACCACAAAAGGAGGCACUUUCAGUAUCUGCAAAAGGUGUUUAGUCCUAAAACAUACUCACCUAGAGGAUAACUCAGGAAAACAAUCUGUUACACUCUAAGACCUUAGGAACAACAGAGGAUUGAGCAUCA
B21: 212115369_212118161_2648_CDS_ENSG00000143493_ENST00000366992|human|control|control (ssRNA)
RNA: GGGAGUUCUACAGUCCGACGAUCGUUCAACAGAAAUUGAGUACUGAAGUAAUCAUUAUGAGGUUCAACCCUUUGCUCCAUCUCAUUGGUCAUGUUGUCAAUGGGUAUCUUGUAGUCUUGUCCAGAUUUACUCUGCAGUGUGGACAACAGAGGAUUGAGCAUCA
B22: chrX:50293416:50293417:+_ENSMUSG00000025626_ENSMUST00000078944|mus_hu|FALSE|FALSE (ssRNA)
RNA: GGGAGUUCUACAGUCCGACGAUCUUUCUUUUUACUUUUAGGUGAUGAGGGCUCCAGUUCAUGUUCAUUAAAACUUUCUUCUAAAUCAGCUUCGGAGUUAUGUGCAGUUUUCUUGUGUUUUCGGCAAUAGACCAUGUAAAUUCCCAACAGAGGAUUGAGCAUCA

This assay deals with T1, UNK ZnF1-3. As to the kind of experiment: nsRBNS (natural sequence RNA bind-n-seq); RBNS binding buffer (assumed for nsRBNS): 25 mM Tris pH 7.5, 150 mM KCl, 3 mM MgCl2, 0.01% Triton X-100, 500 ug/ml BSA, 20 U/ml SUPERase-In, 4 C; UNK is unkempt and MSI1 is Musashi-1; names of the RNAs are library labels; protein concentration not given here; high values mean tight binding.
Consider B1, for which the binding signal stood at 0.674 enrichment R. To B2 belongs 1.07 enrichment R. With B3, the binding signal stood at 0.885 enrichment R. B4 yielded a binding signal of 0.632 enrichment R. To B5 belongs 2.45 enrichment R; to B6, 0.931 enrichment R. To B7 belongs 0.89 enrichment R; to B8, 1.43 enrichment R. Take B9: the binding signal amounted to 1.4 enrichment R.

B10: the binding signal was determined as 2.17 enrichment R.

The molecule B11 displayed a binding signal of 0.867 enrichment R. To B12 belongs 0.988 enrichment R; to B13, 1.14 enrichment R; to B14, 3.19 enrichment R. To B15 belongs 1.47 enrichment R. To B16 belongs 0.427 enrichment R; to B17, 0.604 enrichment R. With B18, the binding signal worked out at 0.528 enrichment R. To B19 belongs 0.836 enrichment R; to B20, 0.923 enrichment R. To B21 belongs 0.838 enrichment R.

With B22, the binding signal turned out to be 0.511 enrichment R.
